Assay results reported in patent US20230058519A1 (SHANGHAI CELL THERAPY GROUP, published 2023).

What was measured:
[1] = target: T1, BCMA expressed on cells (UniProt Q02223 1-184, limits assumed); assay: flow cytometry on CHOK1-BCMA+ cells; unit taken from the axis 'Conc.(nM)'
T1 construct: whole, on cells; also called CHOK1-BCMA cell line; BCMA over-expression cell line
T1 sequence (looked up): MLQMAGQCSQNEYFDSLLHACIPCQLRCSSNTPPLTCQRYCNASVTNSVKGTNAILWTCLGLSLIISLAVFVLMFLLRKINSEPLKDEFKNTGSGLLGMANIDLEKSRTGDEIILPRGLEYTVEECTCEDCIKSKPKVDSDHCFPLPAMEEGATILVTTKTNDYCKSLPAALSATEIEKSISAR
Protocol: The binding bioactivity for mesothelin and BCMA over-expressing cells was evaluated by flow cytometry. Stable cell lines were harvested using 0.25% Trypsin.
About 5E5 cells were collected per sample, and the cells were resuspended in 100 μL/well tested antibodies with His-tag. Then the cells were incubated with anti-His-tag antibody (Genscript, China) and Streptavidin-PE (Biolegend, China). The incubation step of each step was performed at 4° C. in the dark for 1 hr, and then the cells were washed 2× with 200 μL PBS buffer. The washed cells were resuspended in 200 μL PBS buffer and the sample was analyzed by FACS.

[2] = target: T2, BCMA-His antigen (UniProt Q02223 1-54); assay: SPR, BCMA-his coupled on CM5 chip, TCP as analyte, 1:1 fit
T2 construct: also called BMCA antigen
T2 sequence (looked up): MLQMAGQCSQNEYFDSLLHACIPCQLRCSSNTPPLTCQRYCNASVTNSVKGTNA
Protocol: First the binding affinity of the purified BCMA-TCPs against BMCA antigen was assessed by SPR. BCMA-his antigen was coupled onto a CM5 chip (GE Healthcare Life Sciences), and then a variety of anti-BCMA BsAbs were flowed at the flow rate of 10 uL/min with dissociation time of 900s. Binding kinetics were determined with a 1:1 fit model.

B1: TCP002-C (bispecific antibody, human IgG4 S228P)
chain: QLQLGASGGGLVQPGGSLRLSCALSGFTLRELDEFAIGWFRQAPGKEREGVSCISGTGGITHYADSVKGRFTISRDIAKTTVYLQMNSLNSEDTAVYYCAADERCTDRLIRPPTYWGQGTQVTVSSGGGGSAAA[letters of human IgG4 Fc with S228P (EU numbers) left out]GGGGSGGGGSGGGGSQVQLVESGGGLVQPGGSLRLSCAASGSITSIYAIGWYRQAPGKLRELVAAITTSGNTFYRDSVKGRFTISRDNAKNTVSLQMNSLKSEDTAVYDCNGAPWGDHAPLVVSWDQGTQVTVSS
notes: It carries no tag; also called BCMA-TCP
Which EC50 [1] does the source give for B1 here?
The EC50 was 11.7 nM.

And the Kd [2]?
Its Kd is 17.9 nM.

And the koff [2]?
The koff was 0.000482 s⁻¹.

And the kon [2]?
Its kon is 26900 M⁻¹ s⁻¹.
